AUC and IC50 data for 16 cell lines are collected here from the supplement of paper PMC4967469.

What all share (assay): Viability of human cancer cell lines after 72 h of drug (GDSC screen)
Compound in one test: COC1=CC(c2cc3ccccc3[nH]2)=N/C1=C\c1[nH]c(C)cc1C [Obatoclax mesylate]
The note with it: top dose 16 µM. The method, then:
(§1)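 Human cancer cell lines in 384-well plates, medium with 10% serum, drug for 72 h over a 256-fold dose range (nine 2-fold or five 4-fold steps up to the top dose). Adherent lines were fixed and stained with the nucleic acid dye Syto60, suspension lines read with resazurin; signal relative to control wells, capped at 0 and 100%. One two-parameter sigmoid per drug and line, fitted in a mixed model over all curves with the slope shared within a line.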

Compound in a further test: COCC(=O)NC/C=C/c1ccc2ncnc(Nc3ccc(Oc4ccc(C)nc4)c(C)c3)c2c1 [CP724714]
The note with it: top dose 10.24 µM; top dose inferred. The method, then:
as §1

Compound in the next test: Cc1cccc(Nc2nc(-c3ccncc3)cs2)c1 [STF-62247]
The note with it: top dose 10.24 µM; top dose inferred. The method, then:
as §1

Compound in the next test: Cc1cnc(CNC(=O)c2c(=O)c3ccc(N4CCCN(C)CC4)nc3n3c2sc2ccccc23)cn1 [CX-5461]
The conditions noted are these: top dose 10.24 µM; top dose inferred. As for the experimental part:
as §1

IC50 is the fitted dose that halves viability relative to control wells, and lower means more sensitive; where the fit passes the top or lowest dose, that dose stands as a limit. AUC, from the same fit, is the share of area under the viability curve across the 256-fold dose range; values near 1 show little effect. For some assays here: A top dose marked as inferred was calculated from the reported fits.

One may read the IC50 as the concentration that gives 50% inhibition. As for SN12C (kidney, adherent), the AUC is 0.477 with Obatoclax mesylate, 0.971 with CP724714, 0.967 in the test with STF-62247 and 0.985 in the test with CX-5461. Further, the IC50 was 0.857 µM with Obatoclax mesylate, over 10.2 µM with CP724714, over 10.2 µM with STF-62247 and over 10.2 µM in the test with CX-5461.

For the cell line SNG-M (endometrium, adherent), the AUC with Obatoclax mesylate turned out to be 0.045; in the test with CP724714 it was 0.923; in the test with STF-62247 it was 0.985; with CX-5461, 0.986. Moreover, the concentration for half-maximal inhibition (IC50) was under 0.0625 µM with Obatoclax mesylate, over 10.2 µM with CP724714, over 10.2 µM in the test with STF-62247 and over 10.2 µM with CX-5461.

As to SNU-182 (liver, adherent), the AUC with Obatoclax mesylate is 0.14; in the test with CP724714, 0.966; with STF-62247, 0.969; in the test with CX-5461, 0.975. Moreover, the 50% inhibitory concentration (IC50) in the test with Obatoclax mesylate was 0.0698 µM; with CP724714, over 10.2 µM; with STF-62247, over 10.2 µM; with CX-5461, over 10.2 µM.

For SNU-387 (liver, adherent), the AUC with Obatoclax mesylate was found to be 0.462; in the test with CP724714, 0.973; with STF-62247, 0.978; with CX-5461, 0.984. The IC50 with Obatoclax mesylate is 0.777 µM; with CP724714 it was over 10.2 µM; with STF-62247 it was over 10.2 µM; with CX-5461, over 10.2 µM.

In the case of SNU-398 (liver, adherent), the AUC in the test with Obatoclax mesylate was 0.119; with CP724714 it was 0.973; with STF-62247, 0.979; with CX-5461 it was 0.662. For the same cell line, the IC50 is under 0.0625 µM in the test with Obatoclax mesylate, over 10.2 µM in the test with CP724714, over 10.2 µM with STF-62247 and 1.84 µM in the test with CX-5461.

On to SNU-423 (liver, adherent), for which the AUC with Obatoclax mesylate is 0.23; with CP724714 it was 0.954; with STF-62247 it was 0.958; in the test with CX-5461 it was 0.983. In addition, the IC50 with Obatoclax mesylate is 0.141 µM; with CP724714 it was over 10.2 µM; in the test with STF-62247, over 10.2 µM; in the test with CX-5461 it was over 10.2 µM.

For SNU-449 (liver, adherent), the AUC with Obatoclax mesylate came out at 0.267; with CP724714, 0.904; with STF-62247 it was 0.986; with CX-5461 it was 0.986. The IC50 is 0.201 µM with Obatoclax mesylate, over 10.2 µM with CP724714, over 10.2 µM with STF-62247 and over 10.2 µM in the test with CX-5461.

With SNU-475 (liver, adherent), the AUC was 0.951 with Obatoclax mesylate, 0.989 with CP724714, 0.987 in the test with STF-62247 and 0.966 with CX-5461. Also, the IC50 in the test with Obatoclax mesylate was over 16 µM; with CP724714, over 10.2 µM; with STF-62247, over 10.2 µM; in the test with CX-5461, over 10.2 µM.

In the case of SNU-C2B (large intestine, adherent), the AUC is 0.476 with Obatoclax mesylate, 0.949 with CP724714, 0.978 with STF-62247 and 0.928 in the test with CX-5461. The IC50 was 0.841 µM with Obatoclax mesylate, over 10.2 µM with CP724714, over 10.2 µM with STF-62247 and over 10.2 µM with CX-5461.

With SU8686 (pancreas, adherent), the AUC with Obatoclax mesylate is 0.385; with CP724714 it was 0.983; in the test with STF-62247, 0.975; with CX-5461, 0.956. Moreover, the IC50 is 0.463 µM with Obatoclax mesylate, over 10.2 µM with CP724714, over 10.2 µM in the test with STF-62247 and over 10.2 µM with CX-5461.

Take SU-DHL-5 (B-cell lymphoma, suspension): the AUC with Obatoclax mesylate was found to be 0.009; with CP724714, 0.939; in the test with STF-62247, 0.71; with CX-5461 it was 0.329. The IC50 with Obatoclax mesylate was under 0.0625 µM; in the test with CP724714 it was over 10.2 µM; with STF-62247, 2.1 µM; with CX-5461 it was 0.244 µM.

As for SUIT-2 (pancreas, adherent), the AUC in the test with Obatoclax mesylate came out at 0.082; with CP724714 it was 0.969; with STF-62247, 0.946; with CX-5461 it was 0.614. Further, the half-inhibitory concentration (IC50) with Obatoclax mesylate is under 0.0625 µM; with CP724714, over 10.2 µM; with STF-62247, over 10.2 µM; with CX-5461 it was 1.34 µM.

Turning to SW13 (adrenal gland, adherent), the AUC in the test with Obatoclax mesylate was determined as 0.362; in the test with CP724714 it was 0.974; with STF-62247, 0.988; with CX-5461 it was 0.988. Also, the half-inhibitory concentration (IC50) with Obatoclax mesylate is 0.414 µM; in the test with CP724714 it was over 10.2 µM; with STF-62247, over 10.2 µM; with CX-5461, over 10.2 µM.

Take SW48 (large intestine, adherent): the AUC was found to be 0.464 with Obatoclax mesylate, 0.971 in the test with CP724714, 0.971 with STF-62247 and 0.67 with CX-5461. Besides, the IC50 is 0.8 µM with Obatoclax mesylate, over 10.2 µM in the test with CP724714, over 10.2 µM with STF-62247 and 1.9 µM with CX-5461.

In the case of SW156 (kidney, adherent), the AUC with Obatoclax mesylate stood at 0.55; with CP724714 it was 0.968; in the test with STF-62247 it was 0.966; in the test with CX-5461 it was 0.985. The IC50 is 1.39 µM with Obatoclax mesylate, over 10.2 µM in the test with CP724714, over 10.2 µM with STF-62247 and over 10.2 µM with CX-5461.

Regarding SW620 (large intestine, adherent), the AUC is 0.035 with Obatoclax mesylate, 0.98 with CP724714, 0.947 with STF-62247 and 0.763 with CX-5461. In addition, the IC50 was under 0.0625 µM in the test with Obatoclax mesylate, over 10.2 µM in the test with CP724714, over 10.2 µM with STF-62247 and 3.28 µM in the test with CX-5461.
